# Data taken from PubChem BioAssay AID1347073 (National Center for Advancing Translational Sciences (NCATS), 2019).
# The whole screen tested about 45,000 compounds, of which about 200 (0.44%) were called active. This list was built around the results that the source calls inconclusive (neither active nor inactive); the mix of calls is not that of the screen. Calls come from the whole dose curve; as a rule, active = well fitted activation curve with a large enough effect; inconclusive = small, poorly fitted or top-dose-only effect; inactive = no such curve, though single readings can be large or run the other way. Where the call is inconclusive, the potency comes from a doubtful curve fit.
# Test: qHTS of TDP-43 Inhibitors: NCGC Sytravon Library Screen; note: nearly all actives have a fitted effect of over 55% in size; for growth rescue (activation): 0% is about no effect
# Settings: yeast TDP-43 toxicity rescue, BacTiter-Glo growth, 24 h; growth rescue (activation): at 46.1 µM (top of the series)
# Source text: The goal of this project is to identify new chemical probes capable of reversing the toxicity associated with TDP-43 which is associated with frontotemporal lobar degeneration and amyotrophic lateral sclerosis. These compounds will provide a complementary approach to deciphering the tangled mechanisms of toxicity and protection that we have uncovered through genome-wide genetic screens and are beginning to uncover in a large-scale proteomics analysis with mass spectroscopy. To this end, a miniaturized assay was developed to be screened against the Molecular Libraries Small Molecule Repository (MLSMR) to discover TDP-43 inhibitors. Please note that in the set-up this yeast-based assay compounds that inhibit as TDP-43, have a read-out as activators. NIH Chemical Genomics Center [NCGC] NIH Molecular Libraries Probe Centers Network [MLPCN] Assay Submitter (PI): Susan Lindquist, Whitehead Institute/MIT MLPCN Grant: R21 NS060957
# Dispense 2.5 microL yeast galactose medium per 1536-well plate, pin compound, dispense 2.5 microL TDP-43 expressing yeast in galactose medium at OD600=0.02 (pregrown in raffinose medium to mid-log phase) per well, incubate for 24 hr at 30 deg C, and cell growth will be measured using 5 microL of Bactiter/Glo reagent to entire plate and read using Luminescence Protocol in ViewLux.
# Potency is the fitted concentration of half-maximal effect; tags give direction and shape of the fitted curve.
Compound,Potency,growth rescue (activation)
N#C/C(=C\c1ccc(N2CCOCC2)cc1)c1ccccc1,"inconclusive: 22.4 µM [activator, partial curve, poor fit]",
COc1cccc(C2=NOC(C(=O)Nc3cc(C)on3)C2)c1 (stereo not drawn),"inconclusive: 15.8 µM [activator, single point]",
CCn1c(C)nc2cc(C(=O)N/N=C/c3cccc(O)c3O)ccc21,"inconclusive: 22.4 µM [activator, single point]",
O=C(c1ccc(CNS(=O)(=O)c2ccc(Br)cc2)cc1)N1CCCC1,inactive,
COC(=O)c1cn(C(=O)c2ccc(Cl)cc2)c2ccccc12,"inconclusive: 22.4 µM [activator, single point]",
Oc1ccccc1-c1nc2ccccc2nc1-c1ccccc1,"inconclusive: 11.2 µM [activator, partial curve, poor fit]",
O=C(COC(=O)c1ccc(Cl)nc1)NC1CCCc2ccccc21 (stereo not drawn),"inconclusive: 35.5 µM [activator, single point]",
CC(SC#N)C(=O)C12CC3CC(CC(C3)C1)C2 (stereo not drawn),"inconclusive: 12.6 µM [activator, partial curve, poor fit]",
Cc1ccccc1N=Cc1c(O)n(-c2nccs2)c(=O)c2ccccc12,"inconclusive: 35.5 µM [activator, single point]",
CCOP(=O)(OCC)/C(=N/OC(=O)c1cccc([N+](=O)[O-])c1)C(N)=O,inactive,
CCN(CC)CC(C)(C)COC(=O)c1oc2ccccc2c1C,"inconclusive: 25.1 µM [activator, partial curve, poor fit]",
CCCC/C(O)=C1\C(=O)CCCC1=NCCc1c(C)[nH]c2ccc(OC)cc12,"inconclusive: 20 µM [activator, partial curve, poor fit]",
COc1cc(SC)ccc1C(=O)Nc1ncc(C)s1,"inconclusive: 12.6 µM [activator, partial curve]",
CCOC(=O)c1ccc2c(c1)nc(SCc1cn3ccsc3n1)n2CC,"inconclusive: 10 µM [activator, partial curve, poor fit]",
Cc1ccc(N=CC2=C(O)CC(C)(C)CC2=O)nc1,"inconclusive: 20 µM [activator, partial curve, poor fit]",
CC(=O)Nc1ccccc1/C=C/c1ccc2c(C)ccc(O)c2n1,"inconclusive: 35.5 µM [activator, single point]",
CC1=C(C)C(=O)N(c2ccc(C(=O)O)cc2)C1=O,"inconclusive: 14.1 µM [activator, partial curve, poor fit]",
CC1CN(C(=O)CSc2nc(-c3ccc(F)cc3)cs2)CC(C)O1 (stereo not drawn),"inconclusive: 17.8 µM [activator, single point]",
COc1ccc(S(=O)(=O)N(CC(=O)N2CCCCCC2)c2ccccc2OC)cc1,inactive,
CC1(C(=O)NCCc2c[nH]c3ccccc23)CCN1Cc1csc2ccccc12 (stereo not drawn),inactive,
Cc1c(OCc2ccccc2)c(=O)ccn1Cc1ccc(Cl)cc1,"inconclusive: 15.8 µM [activator, single point]",
Cc1nc(N)nc(-c2ccccc2O)n1,"inconclusive: 12.6 µM [activator, partial curve, poor fit]",
COc1ccc(C(C)(O)c2nc(-c3csc4ccccc34)cs2)cc1 (stereo not drawn),active: 17.8 µM,

Compound,Potency,growth rescue (activation)
COc1ccc(NC(=O)CC2SC(=NCC3CCCO3)NC2=O)c([N+](=O)[O-])c1 (stereo not drawn),inactive,
O=C(c1cncc(Br)c1)N1CCN(S(=O)(=O)c2ccc(Cl)cc2)CC1,"inconclusive: 4.47 µM [activator, partial curve]",
COc1ccccc1-c1cc(C(=O)N2CCCCC2C)no1 (stereo not drawn),"inconclusive: 17.8 µM [activator, partial curve, poor fit]",
Cc1sc(NC(=O)c2ccco2)nc1-c1ccccc1,active: 12.6 µM,
COc1ccc(C(O)c2nc(-c3ccc(OC)nc3)cs2)cc1 (stereo not drawn),,inconclusive: 71.7% [activator]
CCC(CO)N=C1CC(C)(C)CC(=O)/C1=C(/O)CCCN1C(=O)c2ccccc2C1=O (stereo not drawn),inactive,
Cc1c(C(=O)N2CCN(S(=O)(=O)c3ccccc3)CC2)oc2ccc(Br)cc12,"inconclusive: 17.8 µM [activator, partial curve, poor fit]",
CCCCc1ccc(NC(=O)CSC2=NN3CCCC(=O)N=C3S2)cc1,"inconclusive: 12.6 µM [activator, partial curve, poor fit]",
O=S(=O)(c1cccc(-c2nnc(SCc3ccc(Cl)cc3)o2)c1)N1CCCCC1,inactive,
O=C(COc1ccc2c(c1)OCO2)Nc1ccccc1C(F)(F)F,"inconclusive: 12.6 µM [activator, partial curve]",
CC(=O)c1ccc(N2CCN(C(=O)COc3ccc(F)cc3)CC2)c(F)c1,"inconclusive: 15.8 µM [activator, single point]",
Cc1ccc(CC2SC(=Nc3ccccc3)N(c3ccccc3)C2=O)cc1 (stereo not drawn),"inconclusive: 35.5 µM [activator, single point]",
CCOc1ccc(CNC(=O)c2ccc(Sc3ccc(Cl)cc3)c(NC(C)=O)c2)cc1OC,"inconclusive: 22.4 µM [activator, partial curve, poor fit]",
Nc1c(Cl)ncnc1N/N=C/c1ccc2ccccc2n1,"inconclusive: 35.5 µM [activator, single point]",
O=C(c1cc2c(=O)n3ccccc3nc2s1)N1CCN(c2cccc(Cl)c2)CC1,"inconclusive: 14.1 µM [activator, single point]",
NC(Cc1ccc(C(F)(F)F)cc1)c1csc(NC(=O)Nc2ccccc2)n1 (stereo not drawn),,inconclusive: 37.1% [activator]
CC1(C(=O)NCc2cccs2)Cc2c(-c3ccc4c(c3)OCO4)ccnc2O1 (stereo not drawn),,inconclusive: 62.1% [activator]
COCc1cc(C)nc2sc(C(=O)Nc3cc(C)ccc3F)c(N)c12,inactive,
CS(=O)(=O)Nc1cccc(NC(=O)c2ccc(-c3ccc(F)c(F)c3)c3ccoc23)c1,,inconclusive: 40.2% [activator]
O=C(NCc1cccc(Cl)c1)c1ccc(-c2cccnc2)c2ccoc12,active: 14.1 µM,
COc1cccc(COC(=O)Nc2ccccc2F)c1,inactive,
CC1CCN(C(=O)c2cc(-c3ccc4c(c3)OCO4)on2)CC1,"inconclusive: 17.8 µM [activator, partial curve, poor fit]",
CCCOC(=O)c1cc(-c2ccc(C=O)o2)ccc1Cl,"inconclusive: 35.5 µM [activator, single point]",

Compound,Potency,growth rescue (activation)
Cn1cc(C(=O)c2ccc(Cl)cc2Cl)cc1C(=O)N/N=C(\N)COc1ccc(Cl)cc1,"inconclusive: 35.5 µM [activator, single point]",
O=C(Nc1ccc2nn(-c3ccc(Cl)cc3)nc2c1)c1cc2ccccc2o1,inactive,
CC(Sc1nnnn1-c1ccc(O)cc1)c1nc2ccccc2c(=O)[nH]1 (stereo not drawn),"inconclusive: 35.5 µM [activator, single point]",
Cc1onc(-c2ccccc2)c1C(=O)N1CCN(c2ccccc2F)CC1,"inconclusive: 35.5 µM [activator, single point]",
Cc1cccc(CNC(=O)C2CCN(c3nnc(-n4c(C)ccc4C)s3)CC2)c1,inactive,
O=C1c2cccnc2C(Nc2ccccc2Br)N1Cc1ccco1 (stereo not drawn),inactive,
O=C(N[C@H](C(=O)O)c1ccccc1)C1CCC(Cn2cnc3ccccc3c2=O)CC1 (stereo partly drawn),"inconclusive: 14.1 µM [activator, single point]",
O=C(O)c1ccc(N/N=C2/CCSc3ccc(F)cc32)cc1,"inconclusive: 3.55 µM [activator, full curve, poor fit]",
Clc1ccc(Cn2ccc3ccccc32)cn1,"inconclusive: 14.1 µM [activator, single point]",
CCOc1cc(N2CCOCC2)c(OCC)cc1NC(=O)c1c(-c2ccccc2Cl)noc1C,"inconclusive: 35.5 µM [activator, single point]",
COc1ccc(F)cc1-c1cc(C(=O)NCc2ccccc2)[nH]n1,,inconclusive: 40.6% [activator]
Nc1ncc(-n2cncn2)c(-c2ccc(Cl)cc2)n1,inactive,
O=[N+]([O-])c1ccc(O)c(C(C#Cc2ccccc2)N2CCOCC2)c1 (stereo not drawn),"inconclusive: 20 µM [activator, partial curve, poor fit]",
O=S(=O)(NC1CCCCC1Nc1ccc(Cl)cc1)c1ccccc1 (stereo not drawn),"inconclusive: 28.2 µM [activator, partial curve, poor fit]",
COc1ccccc1NS(=O)(=O)c1ccc(Cl)c(NC(=S)NC(=O)C2CCCC2)c1,"inconclusive: 17.8 µM [activator, single point]",
O=C(c1c[nH]c(C(=O)C(Cl)(Cl)Cl)c1)c1c(F)cccc1F,"inconclusive: 17.8 µM [activator, single point]",
CCOC(=O)C/C(=N\Nc1ncnc2ccccc12)c1ccccc1,"inconclusive: 12.6 µM [activator, partial curve, poor fit]",
Cc1cccc(NC(=O)CSc2nnc(-c3ccco3)n2CC2CCCO2)n1 (stereo not drawn),inactive,
CC1CCCCC1NC(=S)NC(=O)c1ccccc1Br (stereo not drawn),inactive,
O=C(CC(c1ccccc1)c1ccccc1O)NCc1ccccc1Cl (stereo not drawn),"inconclusive: 35.5 µM [activator, partial curve, poor fit]",
CCC1CCCCN1C(=O)CCc1nnc(Cc2cc(OC)ccc2OC)o1 (stereo not drawn),"inconclusive: 14.1 µM [activator, single point]",
COc1ccc(NC(=S)c2ccccc2)cc1,"inconclusive: 28.2 µM [activator, partial curve, poor fit]",
